This is an account of results in ChEMBL document CHEMBL4888484, “Replenishing the malaria drug discovery pipeline: Screening and hit evaluation of the MMV Hit Generation Library 1 (HGL1) against asexual blood stage Plasmodium falciparum ,using a nano luciferase reporter read-out” (2022).

Usually % Inhibition stands for the drop in the measured response relative to a control, in per cent.

In all, about 150,000 compounds went through this assay and about 540 (0.36%) showed an effect of 50% or more. The list shows a part of the results.

The test system of the assay is Plasmodium falciparum. In words: Primary screen in NF54 nanoGlo assay, in single point, at 2uM, 72h; a lower Z score goes with more inhibition. Type of assay: functional, Erythrocyte. To be noted: timepoint 72 hour.
With `CC(C)c1nnc(CN[C@H](c2ccccc2)C2(CO)CCCC2)o1`, the “% Inhibition” value is reported as -20% and the Z score came to 3.84.
For `CC(C)CC(=O)N(Cc1nccn1Cc1ccc(Cl)cc1Cl)CC1CC1`, in that order: -8% and 0.76.
For the compound `CC(=O)c1c(C)nc(C(Cl)(Cl)Cl)nc1N`, the “% Inhibition” value was -15% and the Z score was 1.98.
The corresponding values for `CC(C)(C)C1CCC(OC[C@@H](O)CN2CCCCC2)CC1` (stereo partly drawn) are -1% and 0.14.
For `CCn1c(-c2ccccc2F)nc2cc(C(=O)NCCc3ccccn3)cc(NC(C)=O)c21`, in that order: 1% and -0.23.
In the case of `CCc1nc(-c2ccc(C(=O)NCC(=O)N3CCN(c4ccccc4)CC3)cc2)no1`, the “% Inhibition” value came out at 1% and the Z score is recorded as -0.25.
For `CC(=O)N1CCC(CCOc2ccccc2)CC1`, the “% Inhibition” value is -12% and the Z score is given as 2.27.
With `CCOC(=O)c1sc(N(C)C[C@H](O)COC)nc1C`, the “% Inhibition” value is reported as -14% and the Z score came to 1.15.
For the compound `O=C(CC1CCCC1)NCc1cccnc1-c1ccsc1`, the “% Inhibition” value is recorded as -6% and the Z score amounted to 0.93.
With `CN(Cc1cnn(-c2ccccc2)c1)c1cc(CCN)ncn1`, the “% Inhibition” value is -11% and the Z score was 1.67.
On to `O=C(CCn1nc2ccccn2c1=O)OCc1nc(-c2ccncc2)no1`, for which the “% Inhibition” value came to 25% and the Z score was -2.79.
For the compound `Cc1cc(N2CCC[C@@]3(CCC(=O)N(Cc4cccnc4)C3)C2)nc(N)n1`, the “% Inhibition” value was found to be 3% and the Z score was -0.6.
The corresponding values for `Cc1ccc(O[C@H]2COCC[C@H]2NC2Cc3ccccc3C2)cn1` are -3% and 0.52.
The corresponding values for `c1ccc(CN2CCC(Nc3cnc4c(c3)COCC4)CC2)cc1` are -7% and 1.31.
For `COc1cccc(CN2C(=O)CCCC[C@H]2C(=O)N2CCCCC2)c1`, the “% Inhibition” value is given as -10% and the Z score was 1.17.
Turning to `CC(C)CNC(=O)N1CCC2(CC1)C[C@@H](N(C)Cc1ccccc1)CCO2`, the “% Inhibition” value was -2% and the Z score is 0.3.
On to `CC[C@H](C)[C@H](N)C(=O)N1CCC2(C1)OCCO2`, for which the “% Inhibition” value was -8% and the Z score is 0.97.
The corresponding values for `O=C(Nc1nnc(C2CC2)s1)c1ccccc1OCc1ccccc1` are -5% and 0.58.
The corresponding values for `O=C1CCCN1c1ccc(-c2nc(C3CC3)n[nH]2)cc1` are 1% and -0.08.
Consider `CC(C)CCN(C(=O)[C@@H](C)Cn1cncn1)C1CC1`, for which the “% Inhibition” value is listed as -7% and the Z score was 0.7.
Take `CCc1ccccc1C(=O)N1CC[C@H](N(C)C)[C@H](CCCO)C1`: the “% Inhibition” value was -6% and the Z score came to 0.84.
For `O=C(NC1CCCCC1)N1CC[C@@H]2COC(=O)N(Cc3ccccc3)[C@@H]2C1`, in that order: -3% and 0.52.
Take `Cc1nc(Cn2nnc(NS(=O)(=O)c3ccc(F)cc3)c2C)no1`: the “% Inhibition” value is given as -7% and the Z score was 0.72.
The corresponding values for `C[C@H]1C[C@@H](C(F)F)n2ncc(C(=O)N3CCO[C@H]4CCC[C@H]43)c2N1` are -3% and 0.41.
For `O=C(Nc1nnc(-c2cc3ccccc3o2)s1)NC1(CO)CCCC1`, in that order: -14% and 2.71.
With `COc1cc(NC2CCN([C@@H](C)C(=O)N(C(C)C)C(C)C)CC2)cc(OC)c1`, the “% Inhibition” value is reported as 1% and the Z score is given as -0.2.
For `Cc1nc(C)c(CC(=O)NCCc2ccc(Cl)cc2)s1`, in that order: 1% and -0.1.
On to `COc1cccn(CC[C@H]2CCCCN2C)c1=O`, for which the “% Inhibition” value is -8% and the Z score was 1.52.
For `O=C(Nc1nc(CN2CCCCCC2)cs1)c1ccc(Br)cc1F`, in that order: -11% and 1.
For `CCC[C@]1(COC)CCCN1C(=O)Nc1ncsc1C(C)C`, in that order: -35% and 4.14.
The corresponding values for `Cc1noc(C)c1NC(=O)[C@@H]1CCCc2ccccc21` are 2% and -0.36.
Consider `O=C(OCCF)N(Cc1cncs1)Cc1cncs1`, for which the “% Inhibition” value is recorded as -3% and the Z score worked out at 0.52.
For `Cc1cc(=O)n2c3c(cc(S(=O)(=O)NCc4ccc(C(=O)O)cc4)cc13)CC2`, in that order: 0% and 0.07.
On to `O=C(Nc1ccc(CCN2CCC(O)CC2)cc1)c1ccsc1`, for which the “% Inhibition” value is -4% and the Z score is on record as 0.73.
For `C#CCCC1(CCC(=O)Nc2ccc3nccn3c2)N=N1`, the “% Inhibition” value is -7% and the Z score is given as 0.81.
As to `COc1ccc(CNC(=O)Cn2ccc3ccccc3c2=O)cc1`, the “% Inhibition” value was determined as 0% and the Z score is -0.04.
For `CC(C)(C)c1cn(C[C@H]2CCCN(C(=O)NC3CCCCCC3)C2)nn1`, in that order: -20% and 3.68.
Regarding `CN1CC[C@@H](C(=O)NCc2cccc(OCC(F)F)n2)S1(=O)=O`, the “% Inhibition” value is -7% and the Z score was 1.1.
The corresponding values for `Cc1c(Cl)c(C(F)F)nn1CC(=O)Nc1sc2c(c1C#N)CCC2` are -7% and 1.13.
The corresponding values for `Cc1cccc(Cl)c1C(=O)NC[C@H]1CCCN(CC(=O)N2CCCC2)C1` are 0% and -0.1.
For the compound `Cc1ncc(CN(C)C(=O)CCc2c(C)[nH]c(=O)c(C#N)c2C)s1`, the “% Inhibition” value is recorded as -5% and the Z score stood at 0.43.
For `O=C(C1CCCCC1)N1CCc2cnccc21`, in that order: -7% and 0.84.
The corresponding values for `CCCn1ncc(C(=O)N[C@@H](CC)c2cn3cccnc3n2)c1C` are -11% and 2.07.
Consider `CN(C)c1ccccc1C(=O)NCc1cnn2cccnc12`, for which the “% Inhibition” value is -1% and the Z score came out at 0.22.
